Laboratory results: paper PMC4336329 (PLoS ONE, 2015)
The campaign covered roughly 310,000 compounds. About 2,200 (0.71%) showed an effect of 50% or more. The effect is printed as a negative number. The list shows a part of the results.

Molecular target: human ether-à-go-go-related gene (hERG) potassium channel (human, UniProt Q12809)
Test: primary screen, population patch clamp on CHO cells stably expressing hERG

human ether-à-go-go-related gene (hERG) potassium channel, sequence (Q12809 whole entry, looked up): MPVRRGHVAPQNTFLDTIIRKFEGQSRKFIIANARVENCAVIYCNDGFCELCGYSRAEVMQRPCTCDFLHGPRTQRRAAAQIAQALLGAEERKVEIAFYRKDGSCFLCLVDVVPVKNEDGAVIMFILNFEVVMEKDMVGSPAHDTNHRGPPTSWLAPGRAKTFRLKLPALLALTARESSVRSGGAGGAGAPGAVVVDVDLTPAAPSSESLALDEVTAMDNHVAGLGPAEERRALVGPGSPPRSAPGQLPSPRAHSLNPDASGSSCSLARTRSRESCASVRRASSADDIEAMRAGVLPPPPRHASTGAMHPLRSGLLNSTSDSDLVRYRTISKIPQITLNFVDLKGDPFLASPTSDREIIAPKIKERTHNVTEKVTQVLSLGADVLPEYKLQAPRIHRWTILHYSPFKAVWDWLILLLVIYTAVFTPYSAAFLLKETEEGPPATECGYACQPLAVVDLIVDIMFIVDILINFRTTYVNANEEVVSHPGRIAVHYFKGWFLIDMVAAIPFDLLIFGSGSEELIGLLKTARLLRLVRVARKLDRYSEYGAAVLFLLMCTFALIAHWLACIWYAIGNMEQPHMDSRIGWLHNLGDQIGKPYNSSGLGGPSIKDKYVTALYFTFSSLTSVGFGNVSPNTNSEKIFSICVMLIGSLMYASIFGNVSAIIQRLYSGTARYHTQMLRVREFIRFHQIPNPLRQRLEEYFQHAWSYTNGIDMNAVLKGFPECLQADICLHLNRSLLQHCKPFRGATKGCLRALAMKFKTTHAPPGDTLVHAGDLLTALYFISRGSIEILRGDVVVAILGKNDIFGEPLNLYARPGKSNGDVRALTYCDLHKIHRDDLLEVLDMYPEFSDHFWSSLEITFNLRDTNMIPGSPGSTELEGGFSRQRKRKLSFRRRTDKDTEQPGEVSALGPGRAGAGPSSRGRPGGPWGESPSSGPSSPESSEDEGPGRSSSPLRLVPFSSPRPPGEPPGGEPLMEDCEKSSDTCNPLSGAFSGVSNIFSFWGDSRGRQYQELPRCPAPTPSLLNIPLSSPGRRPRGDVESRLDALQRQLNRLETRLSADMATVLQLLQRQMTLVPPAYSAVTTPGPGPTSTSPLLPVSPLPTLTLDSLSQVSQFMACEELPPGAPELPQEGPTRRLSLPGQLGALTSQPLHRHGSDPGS

| Compound | hERG current change (%, negative = inhibition) at 1uM [%] |
| --- | --- |
| Cc1cc(Cl)ccc1OCC(=O)O | 0.226 |
| Cc1ccc(N(C(=O)c2csnn2)C(C(=O)NC2CCCC2)c2ccccn2)c(C)c1 (stereo not drawn) | 15.8 |
| CCCn1nnc(NC(=O)c2ccc(-c3cc(Cl)ccc3Cl)o2)n1 | -0.826 |
| COc1ccc(NC(=O)Nc2ccc(OCC(=O)N3CCOCC3)cc2)cc1OC | 3.2 |
| Cn1c2c(c(=O)n(C)c1=O)C1c3cc(Cl)ccc3OCC1CO2 (stereo not drawn) | 2.85 |
| CCCCN1C(=O)C2NN=C(C(=O)OC)C2C1=O (stereo not drawn) | 4.55 |
| CCn1cc(CN2CCN(Cc3ccccc3)C(CCO)C2)c2ccccc21 (stereo not drawn) | 5.37 |
| COc1ccc(C)cc1NC(=O)c1ccccc1NS(=O)(=O)c1ccc(Cl)s1 | 13.3 |
| COc1cc(/C=C(\NC(C)=O)C(=O)Nc2ccccc2C)ccc1OC(C)=O | 10.8 |
| Cc1ccc(N2C(=O)CC(Cn3nc(C)cc3C)C2=O)cc1 (stereo not drawn) | 12.5 |
| CCC(=O)N1CCN(CCN=CC2=C(O)CC(c3ccc(OC)cc3)CC2=O)CC1 (stereo not drawn) | 8.12 |
| CCOC(=O)c1c(-c2cccs2)csc1NC(=O)CN1CCOCC1 | 7.93 |
| Cc1ccc(Oc2nc3ccccn3c(=O)c2/C=C(\C#N)C(=O)Nc2c(C)n(C)n(-c3ccccc3)c2=O)cc1 | 2.15 |
| O=C(c1ccccc1)c1ccc(OCC(O)CNC2CCCc3ccccc32)cc1 (stereo not drawn) | 8.42 |
| Nn1cnc2sc3c(c2c1=O)CCC3 | 3.47 |
| CC(=O)Nc1cccc(C(=O)N2CCN(S(=O)(=O)c3ccc4ccccc4c3)CC2)c1 | 8.17 |
| Cn1c(CC(=O)Nc2ccccc2F)nnc1SCC(=O)NC1CCCCC1 | 7.95 |
| COc1ccccc1CNC(=O)CCS(=O)(=O)c1ccc(Cl)cc1 | -1.52 |
| c1ccc2cc(OCCN3CCCC3)ccc2c1 | 0.252 |
| O=C(CSc1nnc(CNC(=O)c2c(F)cccc2Cl)o1)NC1CCCCC1 | 16.8 |
| O=C(O)CCC(=O)N(Cc1cccnc1)Cc1cccc(F)c1 | 14.5 |
| CCOc1cc(/C=C2\N=C(SCC)SC2=O)cc([N+](=O)[O-])c1OC(C)=O | 7.85 |
| CCOc1cc(CNCCc2ccc(S(N)(=O)=O)cc2)ccc1OCC(=O)NC(C)(C)C.Cl | 7.08 |
| COc1ccc(CCN(C)Cc2nc(-c3cnccn3)no2)cc1OC | 12 |
